According to the RNAGym collection of RNA variant scans (doi:10.7554/elife.90254):
Read counts are not given, so values of variants with three or more changes are uncertain.

B1: LINE1-mini (parent)
chain: GGCAGAGCUCAACACAGCGUGGCAAAGUGGCUGUGGCUAGACUGCC

Variants of: B1
Experiment: self-cleavage, relative activity (ratio to wild type); higher = more cleavage; in vitro, sequencing; the parent is a self-cleaving ribozyme

| Variant | self-cleavage |
| --- | --- |
| GGCAGAGCUAAACACUGCGUGGCAUAGUGGCUGUGGCUAGACUGCG | 0.02 |
| CGCAGAGCUCAACACAUCGUGACUAAGUGGCUGUGGCUAGACUGCC | 0.02 |
| GGGGGAGCUCAACACAGCGUGGCAAAGUGUCUGUUGCUAGACUGCC | 0.06 |
| GGCAGAGCUCAACACAGCGGGGCGAAGUGGCUGUGGCUAUACUGCC | 0.27 |
| UGCAGAGCUCAACACAGCGUGGCUAAGUGGCUAUGGCUAGACAGCC | 0.2 |
| GGCACAGCUCAACACAGCGUGGAAAAGUGGCUGAGCGUAGACUGCC | 0.02 |
| GGCAGAUCUCAACACAGCGUGGCAAAGUGGCUGUGGCUAGACAGCG | 0.03 |
| GGUAGAGCACAACACAUCGUGGCGAAGUGGCUGUGGCUAGACUGCC | 0.02 |
| GGCACAGCUCAACACAGCGUGGCAAAGUGCCUCUGGCUAGACUGCC | 0.03 |
| GCCAGGGCUCAAAACAGCGUGGUAAAGUGGCUAUGGCUAGACUUCC | 0.03 |
| GGUAGAGCUCAACCCAGCGUGUCUAAGAGGGUGUGGCUAGACUGCC | 0.03 |
| GGCAGAGCUCAACACAGCGUGGCAAAGUCGCUGUGGCUAGCUUGCC | 0.04 |
| GGCAGAUCUCAACAUAGCGUGGCAAAGUGGCUGUGGCUAGACUUCC | 0.1 |
| GGCAGAGCUCAACACAGUGUGGCAAAGUGACUGUGGCGAGACUGCC | 0.01 |
| GGCAGAGAUUUAAACAGCAUGACAAAGUGGCUGUGGCUAGACUGCC | 0.02 |
| GUCAGCGCUCAUCACAACGUGGAAAAGUGGCUGUGGCUAGCCUGCC | 0.02 |
| GGCAGAGCUCAACACCGCUUGUCAAAGUGGCUGUGGCUAGACUGCC | 0.08 |
| GGCAGAGCUCAACACACCCUGGCAGAGAGGCUUUGGCUAGACUGCC | 0.05 |
| GCUAGAGCUCAACACAGCGUGGUAAAGUGGCUGUGGCUAGACUGCC | 0.83 |

| Variant | self-cleavage |
| --- | --- |
| GGCAUAGCUAAACACAGAGUGGCAAAGUGGCUGUGGCUAGCCUGCA | 0.03 |
| GGCAGAGCUCAACACAGCGUGGCAAAGUGGCUCUGGCAAGGCUGCC | 0.15 |
| GGCAGAGCUGAACACAGCGUGGCAAUGUGGCUGUGGCUAGGCUGCC | 0.01 |
| GGCAGAGCUCAACACAUCGUGGCCAAGUGGCUGUGGCUAGACUGCA | 0.2 |
| GGCAGAUGUCAACAUAGCGUGGCAAAGUGGCUGUGGCAAGACUGCC | 0.11 |
| GGCAGUGCACUACACAGCUUGGAAAUGUGGCUGUGGCAAGACUGCC | 0 |
| GGCAGAGCUAAACUCAGCGUGGUAAAGUGGCUGUGGCUAGACUGCC | 0 |
| GGCAGGGUUCAACACAGCGUGGCAAAGUGGCUUUGGCUAGACUGCC | 0.76 |
| UGCAGAGCCCAACACAGCGUUGGAAAGUGGCUGUGCCUAAUCUGCC | 0.01 |
| GGCAGAGCUCAACACAGCGUGGCAAACUGGCUGUGGAUAGACUGGC | 0.01 |
| GGCAGAGCUCAACACAUCAUGGCAAAGUGGCUGUGGCUAGACUGCG | 0.1 |
| GGUAGAGCUCGACAGAACGUAGCAAGGUGGCUGCGGCUAUACUGCC | 0 |
| GGCUGAGCUCAACACAGCGUGGCAAAGUUGCUGUGGCUACACAGCC | 0.06 |
| GGCAGAGCUCAACAAAGCGUGGCAAAGUCGCUGUGGCUAGACCGCG | 0.04 |
| GGCAGAGCGCAACACAACGCGGAAAAAUGGCUGUGGCUACUCUGGC | 0.01 |
| GCCAGAGCUCAACACAGCCUGGCAAAGUGGCUCUGGCCAGACUUCC | 0 |
| GCCAGAGCUCAACACAGCGUGGCAAAGUGGCUAUUGCUAGACUGUC | 0.02 |
| GGCAGAGCUCAACACAGCGGGGCAAAGUGGCUGUGGCUAGACUCCG | 0.03 |
| GGCACAGAUCAACACAGCGUGGCAAAGUGCCUGUGGCUAUACUGCC | 0.09 |

| Variant | self-cleavage |
| --- | --- |
| GGCAGAGCUCAACACAGCGUUGCAAAGUUGCUGUGGGUAGACUGCC | 0.01 |
| GGCAGAGCUGAACACAGCCUGGCAAAGUUGCUGUGGCUAGACUGCC | 0.12 |
| GGCAGAGCUCAAAACAGCGUGGCAAAGUGGCUCUGACUAGACUGCC | 0.03 |
| GGCAGUGCUCCACACAGCGUGGCAAAGUGGCUGUGGCUAGACUCCC | 0.06 |
| GGCAGAGGUCAACACAUCGUGGCAAAGUGGCUGUAGCUAGACUGCC | 0.04 |
| GGCAGCGCUCAACACUGUGUGGCAAAGUGGCUGUGGCUAGACUGAC | 0.04 |
| GGCAGAACUCAACACACCGUGGCAAAGUGACUGUGGCUAGACUGCC | 0.43 |
| GGUAGAGCUCAACACCGCGUGGCAAAGUGGUUCUGGCUAUACAGGU | 0.01 |
| GGCAUAGCUCAACACAGCGUGGUAAAGUGGCUGUGGCUAGGCUGCA | 0.06 |
| GGCAGAGAUCAACACAGCGUGGCAAAGUGGCGGUGGCUGGACUGCC | 0.08 |
| GGCAGAGCUCAACACAGCGUGGCAAUGAGGCUUUGGCUAGACUGCU | 0.02 |
| GGCAGGUCUCAACACAGCGCGGCAUAGUGGCUGUAGCUAGACUGCC | 0.07 |
| GGCAGAGCUCAACACGGCGUGGCAAGGUGGCUGUGGCUAGACUGCA | 0.24 |
| GGCAGAGCUUAUCACAUCGUGGCAAAGUGGCUGUGGAUGGACUGCC | 0.03 |
| GGCAGAGCUCAACACAGCGUGGCAAACUGACUGUGGCUAGACUGAC | 0.37 |
| GGCUGAGCUCAACACAGCGUGGCAAAGUGGCUGCGGCCAGACUGCC | 0.3 |
| GGCAGAGCUCAACACACCGUGGCAAAGCGGCUGUGGCCAGACUGCC | 0.33 |
| GGCAGAGCUCAACACAGCCUGGCAAUGUUGCUGUGGCUAGACUGCC | 0.81 |
